Measured values reported in PubChem BioAssay (NCI).
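1) Cells in 96-well plates. 2) Compound, 48 h, 5 concentrations. 3) Linear interpolation between surrounding doses. 4) Unreached endpoint = highest concentration. GI50 is the concentration that inhibits growth by half. TGI: total growth inhibition.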

Tested on: NCI-H322M lung
Assay: growth of human tumour cells (NCI), 48 h

Row | Compound | GI50 | TGI
1 | CCN1C(=O)N(CC)C2C1NN=C1SC(c3ccccc3)=CC(=O)N12 (stereo not drawn) | 0.828 µM | > 100 µM
2 | C#Cc1cc(OC)c(C(=O)Nc2ccc(F)cc2C(=O)Nc2cccc(S(=O)(=O)C(F)(F)F)c2)cn1 | 5.45 µM | > 43.1 µM
3 | Fc1ccc(-c2cc3nc(C(Cl)Cl)nc(-c4ccccc4)n3n2)cc1 | 1.15 µM | 3.34 µM
4 | COC(=O)c1cccc(NC2=C(Cl)C(=O)c3nc(C)ccc3C2=O)c1 | 16 µM | 30.3 µM
